# The supplement of paper PMC8728848
# This is one part of the list.
# How the values were obtained:
# Test in all cases: glycan array binding signal (z-score within array); higher = stronger binding
# Conditions in all cases: glycan notation: IUPAC condensed, linker removed
# [1] = target: Gal(b1-3)[Fuc(a1-4)]GlcNAc(b1-3)Gal(b1-4)[Fuc(a1-3)]GlcNAc
# Summary of the method: (§1)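 Glycan array data were curated from 3228 arrays in the Consortium for Functional Glycomics database and kept only where the protein sequence was available. Glycan names were converted to IUPAC-condensed notation, and columns mapping to the same glycan were averaged. The binding signal is a within-array Z-score, averaged across arrays of the same protein sequence at different concentrations or buffers and across linkers. Negative Z-scores can be read as non-binding.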
# [2] = target: Gal(b1-3)[GlcNAc(b1-6)]GalNAc
# Summary of the method: as §1
# [3] = target: Gal(b1-3)[Neu5Ac(a2-6)]GalNAc
# Summary of the method: as §1
# [4] = target: Gal(b1-3)[Neu5Ac(a2-6)]GlcNAc(b1-6)Gal(b1-4)Glc
# Summary of the method: as §1
# [5] = target: Gal(b1-3)[Neu5Ac(b2-6)]GalNAc
# Summary of the method: as §1
# [6] = target: Gal(b1-4)GalNAc(a1-3)[Fuc(a1-2)]Gal(b1-4)GlcNAc
# Summary of the method: as §1
# [7] = target: Gal(b1-4)GalNAc(b1-3)[Fuc(a1-2)]Gal(b1-4)GlcNAc
# Summary of the method: as §1
# [8] = target: Gal(b1-4)Glc
# Summary of the method: as §1
# [9] = target: Gal(b1-4)Glc6S
# Summary of the method: as §1
# [10] = target: Gal(b1-4)GlcNAc
# Summary of the method: as §1
# [11] = target: Gal(b1-4)GlcNAc(b1-2)Man(a1-3)[Gal(b1-4)GlcNAc(b1-2)Man(a1-6)]Man(b1-4)GlcNAc(b1-4)GlcNAc
# Summary of the method: as §1
# [12] = target: Gal(b1-4)GlcNAc(b1-3)Gal(b1-4)Glc
# Summary of the method: as §1
# [13] = target: Gal(b1-4)GlcNAc(b1-3)Gal(b1-4)GlcNAc
# Summary of the method: as §1
# [14] = target: Gal(b1-4)GlcNAc(b1-3)Gal(b1-4)GlcNAc(b1-3)Gal(b1-4)GlcNAc
# Summary of the method: as §1
# [15] = target: Gal(b1-4)GlcNAc(b1-3)Gal(b1-4)[Fuc(a1-3)]GlcNAc(b1-3)Gal(b1-4)[Fuc(a1-3)]GlcNAc
# Summary of the method: as §1
# [16] = target: Gal(b1-4)GlcNAc(b1-3)GalNAc
# Summary of the method: as §1
# [17] = target: Gal(b1-4)GlcNAc(b1-3)[Gal(b1-4)GlcNAc(b1-6)]GalNAc
# Summary of the method: as §1
# [18] = target: Gal(b1-4)GlcNAc(b1-6)Gal(b1-4)GlcNAc(b1-6)GalNAc
# Summary of the method: as §1
# [19] = target: Gal(b1-4)GlcNAc(b1-6)GalNAc
# Summary of the method: as §1
# [20] = target: Gal(b1-4)GlcNAc(b1-6)[Gal(b1-3)]GalNAc
# Summary of the method: as §1
# [21] = target: Gal3S(b1-3)GalNAc
# Summary of the method: as §1
# [22] = target: Gal3S(b1-3)GlcNAc
# Summary of the method: as §1
# [23] = target: Gal3S(b1-3)[Fuc(a1-4)]GlcNAc
# Summary of the method: as §1
# [24] = target: Gal3S(b1-4)Glc
# Summary of the method: as §1
# [25] = target: Gal3S(b1-4)Glc6S
# Summary of the method: as §1
# [26] = target: Gal3S(b1-4)GlcNAc
# Summary of the method: as §1
# [27] = target: Gal3S(b1-4)GlcNAc6S
# Summary of the method: as §1
# [28] = target: Gal3S6S(b1-4)GlcNAc
# Summary of the method: as §1
# [29] = target: Gal3S6S(b1-4)GlcNAc6S
# Summary of the method: as §1
# [30] = target: Gal4S(b1-4)GlcNAc
# Summary of the method: as §1
# [31] = target: Gal4S6S(b1-4)GlcNAc
# Summary of the method: as §1
# [32] = target: Gal6S(b1-4)Glc
# Summary of the method: as §1
# [33] = target: Gal6S(b1-4)Glc6S
# Summary of the method: as §1
# [34] = target: Gal6S(b1-4)GlcNAc
# Summary of the method: as §1
# [35] = target: GalNAc(a1-3)Gal
# Summary of the method: as §1
# [36] = target: GalNAc(a1-3)GalNAc
# Summary of the method: as §1
# [37] = target: GalNAc(b1-3)Gal(a1-4)Gal(b1-4)GlcNAc
# Summary of the method: as §1
# [38] = target: GalNAc(b1-3)GalNAc
# Summary of the method: as §1
# [39] = target: GalNAc(b1-4)GlcNAc
# Summary of the method: as §1
# [40] = target: Glc(a1-4)Glc
# Summary of the method: as §1
# [41] = target: Glc(a1-6)Glc(a1-6)Glc
# Summary of the method: as §1
# [42] = target: Glc(b1-4)Glc
# Summary of the method: as §1
# [43] = target: Glc(b1-6)Glc
# Summary of the method: as §1
# [44] = target: GlcA(b1-3)Gal
# Summary of the method: as §1
# [45] = target: GlcA(b1-6)Gal
# Summary of the method: as §1
# [46] = target: GlcNAc(a1-3)Gal(b1-4)GlcNAc
# Summary of the method: as §1
# [47] = target: GlcNAc(a1-6)Gal(b1-4)GlcNAc
# Summary of the method: as §1
# [48] = target: GlcNAc(b1-2)Gal(b1-3)GalNAc
# Summary of the method: as §1
# [49] = target: GlcNAc(b1-2)Man(a1-3)[GlcNAc(b1-2)Man(a1-6)]Man(b1-4)GlcNAc(b1-4)GlcNAc
# Summary of the method: as §1
# [50] = target: GlcNAc(b1-3)Gal
# Summary of the method: as §1
# [51] = target: GlcNAc(b1-3)Gal(b1-3)GalNAc
# Summary of the method: as §1
# [52] = target: GlcNAc(b1-3)Gal(b1-4)Glc
# Summary of the method: as §1
# [53] = target: GlcNAc(b1-3)Gal(b1-4)GlcNAc
# Summary of the method: as §1
# [54] = target: GlcNAc(b1-3)Gal(b1-4)GlcNAc(b1-3)Gal(b1-4)GlcNAc
# Summary of the method: as §1
# [55] = target: GlcNAc(b1-3)GalNAc
# Summary of the method: as §1
# [56] = target: GlcNAc(b1-3)[GlcNAc(b1-6)]Gal(b1-4)GlcNAc
# Summary of the method: as §1
# [57] = target: GlcNAc(b1-3)[GlcNAc(b1-6)]GalNAc
# Summary of the method: as §1
# [58] = target: GlcNAc(b1-3)[GlcNAc(b1-6)]GlcNAc(b1-4)GlcNAc
# Summary of the method: as §1
# [59] = target: GlcNAc(b1-4)Gal(b1-4)GlcNAc
# Summary of the method: as §1
# [60] = target: GlcNAc(b1-4)GlcNAc(b1-4)GlcNAc
# Summary of the method: as §1
# [61] = target: GlcNAc(b1-4)GlcNAc(b1-4)GlcNAc(b1-4)GlcNAc(b1-4)GlcNAc
# Summary of the method: as §1
# [62] = target: GlcNAc(b1-4)GlcNAc(b1-4)GlcNAc(b1-4)GlcNAc(b1-4)GlcNAc(b1-4)GlcNAc
# Summary of the method: as §1
# [63] = target: GlcNAc(b1-4)[GlcNAc(b1-6)]GalNAc
# Summary of the method: as §1
# [64] = target: GlcNAc(b1-6)Gal(b1-4)GlcNAc
# Summary of the method: as §1
# [65] = target: GlcNAc(b1-6)GalNAc
# Summary of the method: as §1
# [66] = target: Kdn(a2-3)Gal(b1-3)GlcNAc
# Summary of the method: as §1
# [67] = target: Kdn(a2-3)Gal(b1-4)GlcNAc
# Summary of the method: as §1
binder,measurement,setting,value
MAL (Maackia amurensis) (protein) SDELSFTINNFMPNQGDLLFQGVATVSPTGVLQLTSEENGQPLEYSVGRVLYTAPVRIWDSTTGAVASFSTSFTFVVKAARGASDGLAFFLAPPDSQIPSGSVSKYLGLFNNSNSDSSNQIVAVEFDTYFGHSYDPWDPNYRHIGIDVNGIESIKTVQWDWINGGVAFATITYLAPNKTLIASLVYPSNQTSFIVAASVDLKEILPEWVRVGFSAATGAPKAVETHDVRSWSFTSTLEANSPADVDN,glycan array binding signal (z-score),[1],-0.272
same,glycan array binding signal (z-score),[2],-0.393
same,glycan array binding signal (z-score),[3],-0.428
same,glycan array binding signal (z-score),[4],-0.367
same,glycan array binding signal (z-score),[5],-0.395
same,glycan array binding signal (z-score),[6],-0.242
same,glycan array binding signal (z-score),[7],-0.406
same,glycan array binding signal (z-score),[8],-0.34
same,glycan array binding signal (z-score),[9],0.035
same,glycan array binding signal (z-score),[10],0.336
same,glycan array binding signal (z-score),[11],0.969
same,glycan array binding signal (z-score),[12],0.901
same,glycan array binding signal (z-score),[13],0.414
same,glycan array binding signal (z-score),[14],-0.021
same,glycan array binding signal (z-score),[15],0.146
same,glycan array binding signal (z-score),[16],1.49
same,glycan array binding signal (z-score),[17],2.17
same,glycan array binding signal (z-score),[18],1.55
same,glycan array binding signal (z-score),[19],-0.204
same,glycan array binding signal (z-score),[20],-0.171
same,glycan array binding signal (z-score),[21],3.46
same,glycan array binding signal (z-score),[22],2.67
same,glycan array binding signal (z-score),[23],-0.401
same,glycan array binding signal (z-score),[24],4.98
same,glycan array binding signal (z-score),[25],4.51
same,glycan array binding signal (z-score),[26],4.96
same,glycan array binding signal (z-score),[27],5.35
same,glycan array binding signal (z-score),[28],0.345
same,glycan array binding signal (z-score),[29],-0.067
same,glycan array binding signal (z-score),[30],-0.28
same,glycan array binding signal (z-score),[31],-0.318
same,glycan array binding signal (z-score),[32],-0.322
same,glycan array binding signal (z-score),[33],-0.181
same,glycan array binding signal (z-score),[34],-0.066
same,glycan array binding signal (z-score),[35],-0.273
same,glycan array binding signal (z-score),[36],-0.352
same,glycan array binding signal (z-score),[37],-0.397
same,glycan array binding signal (z-score),[38],0.05
same,glycan array binding signal (z-score),[39],-0.131
same,glycan array binding signal (z-score),[40],-0.322
same,glycan array binding signal (z-score),[41],-0.403
same,glycan array binding signal (z-score),[42],-0.412
same,glycan array binding signal (z-score),[43],-0.428
same,glycan array binding signal (z-score),[44],-0.414
same,glycan array binding signal (z-score),[45],-0.231
same,glycan array binding signal (z-score),[46],-0.353
same,glycan array binding signal (z-score),[47],-0.365
same,glycan array binding signal (z-score),[48],-0.423
same,glycan array binding signal (z-score),[49],-0.377
same,glycan array binding signal (z-score),[50],-0.422
same,glycan array binding signal (z-score),[51],-0.412
same,glycan array binding signal (z-score),[52],-0.409
same,glycan array binding signal (z-score),[53],-0.316
same,glycan array binding signal (z-score),[54],-0.361
same,glycan array binding signal (z-score),[55],-0.418
same,glycan array binding signal (z-score),[56],-0.381
same,glycan array binding signal (z-score),[57],-0.374
same,glycan array binding signal (z-score),[58],-0.239
same,glycan array binding signal (z-score),[59],-0.427
same,glycan array binding signal (z-score),[60],-0.417
same,glycan array binding signal (z-score),[61],-0.419
same,glycan array binding signal (z-score),[62],-0.046
same,glycan array binding signal (z-score),[63],-0.221
same,glycan array binding signal (z-score),[64],-0.412
same,glycan array binding signal (z-score),[65],-0.302
same,glycan array binding signal (z-score),[66],0.08
same,glycan array binding signal (z-score),[67],1.56
